In all, about 360,000 compounds went through this assay and about 16,000 (4.4%) were called active. This list was built around the results that the source calls inconclusive (neither active nor inactive); the mix of calls is not that of the screen. Calls come from the whole dose curve; as a rule, active = well fitted inhibition curve with a large enough effect; inconclusive = small, poorly fitted or top-dose-only effect; inactive = no such curve, though single readings can be large or run the other way. Potencies beside an inconclusive call are fits to weak or partial responses and may not hold up.
Biological target: Bromodomain adjacent to zinc finger domain protein 2B (Homo sapiens) (UniProt Q9UIF8)
Test: qHTS Assay for Inhibitors of BAZ2B; note: nearly all actives have a fitted effect of over 60% in size
Conditions: AlphaScreen BAZ2B-H3K14Ac peptide displacement; activity change, negative = inhibition: at 114 µM (top of the series)
In short: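 In this displacement format the biotinylated H3(5-23) peptide acetylated at Lys14 serves as ligand at 50 nM, with BAZ2B at 50 nM in PBS pH 7.4 containing 0.01% Tween-20. Donor and acceptor beads are 10 ug/mL final.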
% is set by controls: 0 for no effect and ±100 for the full control effect; potency is the fitted concentration of half-maximal effect; tags give direction and shape of the fitted curve.

Sequence of UniProt Q9UIF8 (Q9UIF8 whole entry, looked up, the tested form may be a part): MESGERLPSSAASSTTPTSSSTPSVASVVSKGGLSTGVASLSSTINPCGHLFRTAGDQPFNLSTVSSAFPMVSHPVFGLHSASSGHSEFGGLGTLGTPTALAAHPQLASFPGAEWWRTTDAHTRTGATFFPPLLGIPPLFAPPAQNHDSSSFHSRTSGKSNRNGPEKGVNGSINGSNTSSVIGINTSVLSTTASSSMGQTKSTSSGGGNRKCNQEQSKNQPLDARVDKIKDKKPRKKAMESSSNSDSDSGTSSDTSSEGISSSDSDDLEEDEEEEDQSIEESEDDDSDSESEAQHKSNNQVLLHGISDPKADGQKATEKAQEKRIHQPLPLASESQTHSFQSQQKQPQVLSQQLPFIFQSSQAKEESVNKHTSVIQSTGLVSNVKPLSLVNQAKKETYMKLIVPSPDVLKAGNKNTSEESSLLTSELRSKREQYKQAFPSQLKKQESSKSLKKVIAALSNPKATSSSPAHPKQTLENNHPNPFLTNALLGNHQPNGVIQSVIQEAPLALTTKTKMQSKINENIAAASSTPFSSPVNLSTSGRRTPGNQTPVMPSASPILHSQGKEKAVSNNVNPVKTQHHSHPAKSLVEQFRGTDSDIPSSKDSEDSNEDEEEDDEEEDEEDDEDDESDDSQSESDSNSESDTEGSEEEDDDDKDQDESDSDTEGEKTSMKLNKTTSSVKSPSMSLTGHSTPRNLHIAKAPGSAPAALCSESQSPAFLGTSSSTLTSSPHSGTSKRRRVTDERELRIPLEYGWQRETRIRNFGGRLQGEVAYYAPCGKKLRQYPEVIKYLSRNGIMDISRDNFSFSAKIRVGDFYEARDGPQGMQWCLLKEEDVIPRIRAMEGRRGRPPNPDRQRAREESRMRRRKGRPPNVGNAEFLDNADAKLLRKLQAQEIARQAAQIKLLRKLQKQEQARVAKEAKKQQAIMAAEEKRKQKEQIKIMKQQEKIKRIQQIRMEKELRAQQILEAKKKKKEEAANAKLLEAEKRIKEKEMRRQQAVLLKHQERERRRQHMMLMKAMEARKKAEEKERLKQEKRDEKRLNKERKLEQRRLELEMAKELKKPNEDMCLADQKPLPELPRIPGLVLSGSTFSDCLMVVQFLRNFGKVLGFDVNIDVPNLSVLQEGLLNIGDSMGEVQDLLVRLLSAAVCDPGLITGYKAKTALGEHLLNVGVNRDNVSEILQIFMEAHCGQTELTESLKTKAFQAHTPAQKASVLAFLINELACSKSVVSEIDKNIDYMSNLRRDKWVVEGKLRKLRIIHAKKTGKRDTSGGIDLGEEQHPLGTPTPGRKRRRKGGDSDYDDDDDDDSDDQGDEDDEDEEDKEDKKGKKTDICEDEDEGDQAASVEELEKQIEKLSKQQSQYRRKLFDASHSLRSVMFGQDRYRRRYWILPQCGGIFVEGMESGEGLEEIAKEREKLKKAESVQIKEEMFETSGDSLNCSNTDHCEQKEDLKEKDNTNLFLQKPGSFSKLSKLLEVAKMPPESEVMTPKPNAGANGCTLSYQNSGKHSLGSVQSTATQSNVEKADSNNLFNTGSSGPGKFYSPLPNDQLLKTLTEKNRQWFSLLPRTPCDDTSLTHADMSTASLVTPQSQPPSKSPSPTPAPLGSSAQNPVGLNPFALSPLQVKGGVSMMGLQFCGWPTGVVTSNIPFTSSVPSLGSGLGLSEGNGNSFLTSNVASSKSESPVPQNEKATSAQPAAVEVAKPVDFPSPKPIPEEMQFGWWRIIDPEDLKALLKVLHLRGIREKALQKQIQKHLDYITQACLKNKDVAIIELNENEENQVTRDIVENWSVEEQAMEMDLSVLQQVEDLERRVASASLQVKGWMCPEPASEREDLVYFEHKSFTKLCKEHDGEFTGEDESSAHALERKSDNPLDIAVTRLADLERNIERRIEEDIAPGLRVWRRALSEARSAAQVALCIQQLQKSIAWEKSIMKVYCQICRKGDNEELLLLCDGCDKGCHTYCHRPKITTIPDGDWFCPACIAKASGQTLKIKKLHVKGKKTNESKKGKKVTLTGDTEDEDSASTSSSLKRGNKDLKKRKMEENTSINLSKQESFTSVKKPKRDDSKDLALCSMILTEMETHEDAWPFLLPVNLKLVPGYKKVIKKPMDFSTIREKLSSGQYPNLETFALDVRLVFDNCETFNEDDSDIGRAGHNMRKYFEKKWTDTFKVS

Row | SMILES | Potency | activity change, negative = inhibition
1 | CCn1c(-c2ccc(N(C)C)cc2)nc2ccccc21 | active: 50.1 µM | 
2 | COC(=O)c1cc(=O)nc2sc(-c3cccs3)nn12 |  | inactive: 0.124%
3 | CCN(CC)/C(Sc1ccccc1)=C(\C(Cl)=C(Cl)Cl)[N+](=O)[O-] | active: 50.1 µM | 
4 | O=[N+]([O-])c1cc(S(=O)(=O)N2CCCCC2)ccc1NCc1cccc(Cl)c1 | inconclusive: 10 µM [inhibitor, full curve] | 
5 | O=C1Cc2cc(CCN3CCN(c4nsc5ccccc45)CC3)c(Cl)cc2N1 | inconclusive: 50.1 µM [inhibitor, partial curve] | 
6 | N#CC1=C(N)N=C(SCc2ccccc2)C(C(N)=O)C12CCCCC2 (stereo not drawn) | inconclusive: 89.1 µM [inhibitor, single point] | 
7 | CSc1cccc(-c2nnc(NC(=O)c3cccc(N4C(=O)CCC4=O)c3)o2)c1 | inconclusive: 89.1 µM [inhibitor, single point] | 
8 | COc1ccccc1OCc1nc(C#N)c(NCc2ccco2)o1 | inconclusive: 89.1 µM [inhibitor, single point] | 
9 | CCN1CC(CN(C)Cc2nc(Cc3ccccc3)no2)CC1=O (stereo not drawn) |  | inactive: 1.29%
10 | CCc1ccc(O)c(C(=O)c2cnc3cc(-c4ccc(C)cc4)nn3c2)c1 |  | inactive: -16.6%
11 | Cc1ccccc1CSCCNC(=O)CSCc1ccc([N+](=O)[O-])cc1 | inconclusive: 50.1 µM [inhibitor, partial curve] | 
12 | Cc1ccc(S(=O)(=O)N2[C@@H](c3ccccc3)C(C(=O)O)=CC[C@H]2c2ccc(Cl)c(Cl)c2)cc1 | inconclusive: 89.1 µM [inhibitor, single point] | 
13 | O=C(O)c1cc(N/N=C/c2ccc(-c3ccc(F)cc3)o2)ccc1Cl | inconclusive: 50.1 µM [inhibitor, partial curve] | 
14 | O=C1CCCCc2sc(Br)c([N+](=O)[O-])c2N1 |  | inactive: -16.5%
15 | COC(=O)/C=C1\SC(=NC(=O)c2cccc(Cl)c2)NC1=O | inconclusive: 89.1 µM [inhibitor, single point] | 
16 | O=C(CCC(=O)c1cccs1)NCc1cccnc1 |  | inactive: -27.8%
17 | CCOc1ccccc1NC1=C(Cl)C(=O)N(c2ccccc2)C1=O | inconclusive: 39.8 µM [inhibitor, full curve] | 
18 | CCOc1ccc(CCNC(=O)COC(=O)c2cc([N+](=O)[O-])ccc2N2CCOCC2)cc1OCC | inconclusive: 79.4 µM [inhibitor, single point] | 
19 | CN(C)C(CNC(=O)c1ccco1)c1cccs1 (stereo not drawn) |  | inactive: 6.91%
20 | COc1ccccc1N1CC(C)(C)C(=O)N(C(=O)c2ccc(C)cc2)C1=S | inconclusive: 70.8 µM [inhibitor, single point] | 
21 | NC(=O)c1cc([N+](=O)[O-])ccc1NCc1cnccn1 |  | inactive: 14.7%
22 | COc1ccc(O)c(/C=N/NC(=O)c2ccc(OCc3cccc(Br)c3)cc2)c1 | inconclusive: 89.1 µM [inhibitor, single point] | 
23 | Cc1ccc(S(=O)(=O)N2CN(CC3CCCO3)c3nc4ccccc4nc32)c(C)c1 (stereo not drawn) | inconclusive: 79.4 µM [inhibitor, single point] | 
24 | O=C(NC(=S)N1CCN(c2ccc(F)cc2)CC1)c1cccs1 | inconclusive: 17.8 µM [inhibitor, full curve] | 

Row | SMILES | Potency | activity change, negative = inhibition
25 | Cc1nnc(SCc2ccc(Cl)cc2)nc1/C=C/N(C)C | inconclusive: 89.1 µM [inhibitor, single point] | 
26 | CCc1nc2nc(C)c(NS(=O)(=O)c3ccc(F)cc3)c(=O)n2[nH]1 |  | inactive: 12%
27 | O=C(OCc1ccccc1)c1cn(-c2ccccc2)nc1-c1ccncc1 |  | inactive: 1.59%
28 | O=C(COC(=O)c1ccccc1Br)NCc1ccccc1 | inconclusive: 89.1 µM [inhibitor, single point] | 
29 | COc1cccc(-c2nnc(SCC(=O)N3CCC(C)CC3)o2)c1 |  | inactive: 2.96%
30 | O=C(OCc1cc(=O)n2nc(C3CCCCC3)sc2n1)c1ccccc1Cl |  | inactive: 0.628%
31 | Cc1ccc(-c2ccc(SCC(=O)N3CCCc4ccccc43)nn2)cc1 | inconclusive: 89.1 µM [inhibitor, single point] | 
32 | COc1ccc(C(=O)Oc2cccc3cccnc23)cc1[N+](=O)[O-] | active: 14.1 µM | 
33 | C/C(=N/NS(=O)(=O)c1ccc(Cl)cc1)c1cccc(NC(=O)c2ccc(Cl)cc2Cl)c1 | inconclusive: 10 µM [inhibitor, full curve, poor fit] | 
34 | CC1CN(S(=O)(=O)c2cccc(C(=O)NCCC3=CCCCC3)c2)CC(C)O1 (stereo not drawn) |  | inactive: 12.1%
35 | Clc1ccc(CN2CCC(CNc3ncnc4onc(-c5ccc(Cl)cc5)c34)CC2)cc1 | inconclusive: 22.4 µM [inhibitor, full curve] | 
36 | O=C(CSCc1ccc(F)cc1)N1CCN(c2ccc(Cl)cc2)CC1 |  | inactive: 8.13%
37 | O=C(c1ccccc1)c1ccc2nc(-c3ccco3)c(-c3ccco3)nc2c1 | active: 14.1 µM | 
38 | O=C(O)C1Cc2ccccc2CN1C(=O)COc1ccc(Cl)cc1Cl (stereo not drawn) |  | inactive: -31.1%
39 | Oc1ccc(/C=N/N2CCCCC2)cc1O | inconclusive: 79.4 µM [inhibitor, single point] | 
40 | Oc1ccccc1Nc1nc(NCc2ccco2)c2ccccc2n1 | active: 44.7 µM | 
41 | Cc1cccc(NC(=O)c2nnn(-c3cccc(C(F)(F)F)c3)c2N)c1 | inconclusive: 89.1 µM [inhibitor, single point] | 
42 | O=C(/C=C/c1ccco1)NC(=S)Nc1cccc([N+](=O)[O-])c1 | inconclusive: 89.1 µM [inhibitor, single point] | 
43 | CC(CCc1ccco1)NC(=O)Cn1ncc2c1-c1ccccc1OC2 (stereo not drawn) |  | inactive: -33.7%
44 | Cc1nccn1CC(=O)O |  | inactive: -1.07%
45 | COc1ccccc1N1CCN(C(c2cccs2)c2nnnn2C2CCCC2)CC1 (stereo not drawn) | inconclusive: 89.1 µM [inhibitor, single point] | 
46 | CCN(CC)C(=O)c1sc2c(c1C)c(=O)n(CCc1ccccc1)c(=O)n2Cc1ccc(F)cc1Cl |  | inactive: -1.14%
47 | COc1ccc(-n2c(C)cc(C(=O)CN3C(=O)NC4(CCCc5sccc54)C3=O)c2C)cc1 (stereo not drawn) | inconclusive: 89.1 µM [inhibitor, single point] | 
48 | CN(C)c1ccc(NC(=O)COC(=O)CNC(=O)c2cccs2)cc1 | inconclusive: 50.1 µM [inhibitor, partial curve] | 
